Changes are numbered by the printed parent chain; changes in the protein carry UniProt numbers. The list shows a part of the results.
T1: RBFOX1 RRM (Homo sapiens, UniProt Q9NWB1 109-208)
T1 sequence: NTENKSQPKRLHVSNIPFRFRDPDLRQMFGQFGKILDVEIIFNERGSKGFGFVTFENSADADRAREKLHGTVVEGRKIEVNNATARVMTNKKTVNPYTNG

B1: UUAUCCA (DNA:RNA)
RNA: GGGAGACCGGAAUUCAGAUUGUCCUUAUCCAUUAAAUCCCGUCGUAGCCACCA
DNA 1: CAATCTGAATTCCGGTCTCCC
DNA 2: TGGTGGCTACGACGGGATT
B2: AACACCC (DNA:RNA)
RNA: B1 RNA with U25A, U26A, A27C, U28A, A31C
DNA 1: CAATCTGAATTCCGGTCTCCC
DNA 2: TGGTGGCTACGACGGGATT
B3: AUGACAA (DNA:RNA)
RNA: B1 RNA with U25A, A27G, U28A, C30A
DNA 1: CAATCTGAATTCCGGTCTCCC
DNA 2: TGGTGGCTACGACGGGATT
B4: CGCACAC (DNA:RNA)
RNA: B1 RNA with U25C, U26G, A27C, U28A, C30A, A31C
DNA 1: CAATCTGAATTCCGGTCTCCC
DNA 2: TGGTGGCTACGACGGGATT
B5: GAAGGCU (DNA:RNA)
RNA: B1 RNA with U25G, U26A, U28G, C29G, A31U
DNA 1: CAATCTGAATTCCGGTCTCCC
DNA 2: TGGTGGCTACGACGGGATT
B6: CAAAGUC (DNA:RNA)
RNA: B1 RNA with U25C, U26A, U28A, C29G, C30U, A31C
DNA 1: CAATCTGAATTCCGGTCTCCC
DNA 2: TGGTGGCTACGACGGGATT
B7: CCUGAUU (DNA:RNA)
RNA: GGGAGACCGGAAUUCAGAUUGUCCCCUGAUUUUAAAUCCCGUCGUAGCCACCA
DNA 1: CAATCTGAATTCCGGTCTCCC
DNA 2: TGGTGGCTACGACGGGATT
B8: GAGGCCU (DNA:RNA)
RNA: B7 RNA with C25G, C26A, U27G, A29C, U30C
DNA 1: CAATCTGAATTCCGGTCTCCC
DNA 2: TGGTGGCTACGACGGGATT
B9: AGGAUAC (DNA:RNA)
RNA: GGGAGACCGGAAUUCAGAUUGUCCAGGAUACUUAAAUCCCGUCGUAGCCACCA
DNA 1: CAATCTGAATTCCGGTCTCCC
DNA 2: TGGTGGCTACGACGGGATT
B10: CGUUAUG (DNA:RNA)
RNA: B7 RNA with C26G, G28U, U31G
DNA 1: CAATCTGAATTCCGGTCTCCC
DNA 2: TGGTGGCTACGACGGGATT
B11: UCUCAGG (DNA:RNA)
RNA: B7 RNA with C25U, G28C, U30G, U31G
DNA 1: CAATCTGAATTCCGGTCTCCC
DNA 2: TGGTGGCTACGACGGGATT
B12: GAUACAG (DNA:RNA)
RNA: B9 RNA with A25G, G26A, G27U, U29C, C31G
DNA 1: CAATCTGAATTCCGGTCTCCC
DNA 2: TGGTGGCTACGACGGGATT
B13: AGUAUCG (DNA:RNA)
RNA: B9 RNA with G27U, A30C, C31G
DNA 1: CAATCTGAATTCCGGTCTCCC
DNA 2: TGGTGGCTACGACGGGATT
B14: CAGGAGG (DNA:RNA)
RNA: B7 RNA with C26A, U27G, U30G, U31G
DNA 1: CAATCTGAATTCCGGTCTCCC
DNA 2: TGGTGGCTACGACGGGATT
B15: GGUAUGA (DNA:RNA)
RNA: B9 RNA with A25G, G27U, A30G, C31A
DNA 1: CAATCTGAATTCCGGTCTCCC
DNA 2: TGGTGGCTACGACGGGATT
B16: GUCCAAA (DNA:RNA)
RNA: B1 RNA with U25G, A27C, U28C, C29A, C30A
DNA 1: CAATCTGAATTCCGGTCTCCC
DNA 2: TGGTGGCTACGACGGGATT
B17: CGUCUAU (DNA:RNA)
RNA: B9 RNA with A25C, G27U, A28C, C31U
DNA 1: CAATCTGAATTCCGGTCTCCC
DNA 2: TGGTGGCTACGACGGGATT
B18: CCGUCCG (DNA:RNA)
RNA: B1 RNA with U25C, U26C, A27G, A31G
DNA 1: CAATCTGAATTCCGGTCTCCC
DNA 2: TGGTGGCTACGACGGGATT
B19: UAUGUUA (DNA:RNA)
RNA: B7 RNA with C25U, C26A, A29U, U31A
DNA 1: CAATCTGAATTCCGGTCTCCC
DNA 2: TGGTGGCTACGACGGGATT
B20: CUGUUCU (DNA:RNA)
RNA: B1 RNA with U25C, A27G, C29U, A31U
DNA 1: CAATCTGAATTCCGGTCTCCC
DNA 2: TGGTGGCTACGACGGGATT
B21: UCGCGCC (DNA:RNA)
RNA: B9 RNA with A25U, G26C, A28C, U29G, A30C
DNA 1: CAATCTGAATTCCGGTCTCCC
DNA 2: TGGTGGCTACGACGGGATT
B22: GGACGUA (DNA:RNA)
RNA: B1 RNA with U25G, U26G, U28C, C29G, C30U
DNA 1: CAATCTGAATTCCGGTCTCCC
DNA 2: TGGTGGCTACGACGGGATT
B23: AUAAAAG (DNA:RNA)
RNA: B9 RNA with G26U, G27A, U29A, C31G
DNA 1: CAATCTGAATTCCGGTCTCCC
DNA 2: TGGTGGCTACGACGGGATT
B24: AAACUUA (DNA:RNA)
RNA: B9 RNA with G26A, G27A, A28C, A30U, C31A
DNA 1: CAATCTGAATTCCGGTCTCCC
DNA 2: TGGTGGCTACGACGGGATT
B25: UAAGAAA (DNA:RNA)
RNA: B1 RNA with U26A, U28G, C29A, C30A
DNA 1: CAATCTGAATTCCGGTCTCCC
DNA 2: TGGTGGCTACGACGGGATT
B26: CCGCCGA (DNA:RNA)
RNA: B7 RNA with U27G, G28C, A29C, U30G, U31A
DNA 1: CAATCTGAATTCCGGTCTCCC
DNA 2: TGGTGGCTACGACGGGATT
B27: GGAGAAA (DNA:RNA)
RNA: B9 RNA with A25G, G27A, A28G, U29A, C31A
DNA 1: CAATCTGAATTCCGGTCTCCC
DNA 2: TGGTGGCTACGACGGGATT
B28: CAUGGGC (DNA:RNA)
RNA: B7 RNA with C26A, A29G, U30G, U31C
DNA 1: CAATCTGAATTCCGGTCTCCC
DNA 2: TGGTGGCTACGACGGGATT
B29: CUCAUAU (DNA:RNA)
RNA: B9 RNA with A25C, G26U, G27C, C31U
DNA 1: CAATCTGAATTCCGGTCTCCC
DNA 2: TGGTGGCTACGACGGGATT
B30: GCGCUUA (DNA:RNA)
RNA: B9 RNA with A25G, G26C, A28C, A30U, C31A
DNA 1: CAATCTGAATTCCGGTCTCCC
DNA 2: TGGTGGCTACGACGGGATT
B31: ACCUAGU (DNA:RNA)
RNA: B7 RNA with C25A, U27C, G28U, U30G
DNA 1: CAATCTGAATTCCGGTCTCCC
DNA 2: TGGTGGCTACGACGGGATT

Biological target: T1, RBFOX1 RRM
Assay: EMSA; HiTS-Eq, 1 nM pool, 10 min; buffer printed only for the single-RNA assays: 10 mM Tris pH 7.5, 150 mM NaCl, 3.4 mM EDTA, 0.001% NP-40, 30 C
Conditions: tags: His6 N-terminal (pET28a); label: 5' 32P
Summary of the method: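 Purified RbFox RRM (wild type or mutant) was equilibrated for 10 min in 50 µL with 1 nM of a 5′-radiolabelled pool of RNA with 7 randomized nucleotides, its flanks annealed to DNA oligonucleotides, across increasing protein concentrations. Free RNA was separated by 8% native PAGE, excised, reverse-transcribed, PCR-barcoded and sequenced on an Illumina HiSeq 2500. Relative association constants came from read-count changes of each variant against the control reaction, normalised to the cognate motif.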

Binder	binding signal
B1	0.000975 KA relative to UGCAUGU
B2	0.000265 KA relative to UGCAUGU
B3	0.00688 KA relative to UGCAUGU
B4	0.00709 KA relative to UGCAUGU
B5	0.0147 KA relative to UGCAUGU
B6	0.00345 KA relative to UGCAUGU
B7	0.00913 KA relative to UGCAUGU
B8	0.0209 KA relative to UGCAUGU
B9	0.0128 KA relative to UGCAUGU
B10	0.013 KA relative to UGCAUGU
B11	0.00927 KA relative to UGCAUGU
B12	0.00873 KA relative to UGCAUGU
B13	0.00649 KA relative to UGCAUGU
B14	0.00882 KA relative to UGCAUGU
B15	0.0175 KA relative to UGCAUGU
B16	0.00397 KA relative to UGCAUGU

Binder	binding signal
B17	0.00694 KA relative to UGCAUGU
B18	0.0174 KA relative to UGCAUGU
B19	0.0151 KA relative to UGCAUGU
B20	0.0159 KA relative to UGCAUGU
B21	0.0112 KA relative to UGCAUGU
B22	0.0149 KA relative to UGCAUGU
B23	0.00169 KA relative to UGCAUGU
B24	0.00313 KA relative to UGCAUGU
B25	0.00895 KA relative to UGCAUGU
B26	0.0089 KA relative to UGCAUGU
B27	0.0138 KA relative to UGCAUGU
B28	0.0064 KA relative to UGCAUGU
B29	0.00202 KA relative to UGCAUGU
B30	0.00615 KA relative to UGCAUGU
B31	0.00342 KA relative to UGCAUGU

From PMC9911399, “Two distinct binding modes provide the RNA-binding protein RbFox with extraordinary sequence specificity”
